{"source": "PubChem BioAssay (NCI)", "assay_in_all_cases": "inhibition of tumour cell growth, NCI panel, 48 h", "key": {"[1]": {"tested_on": "DU-145 prostate"}, "[2]": {"tested_on": "SF-268 CNS"}, "[3]": {"tested_on": "MDA-MB-231 breast"}, "[4]": {"tested_on": "SNB-75 CNS"}, "[5]": {"tested_on": "SF-295 CNS"}, "[6]": {"tested_on": "NCI-H522 lung"}, "[7]": {"tested_on": "NCI-H23 lung"}, "[8]": {"tested_on": "CAKI-1 renal"}, "[9]": {"tested_on": "MDA-MB-435"}, "[10]": {"tested_on": "SK-MEL-5 melanoma"}, "[11]": {"tested_on": "A498 renal"}, "[12]": {"tested_on": "HT29 colon"}, "[13]": {"tested_on": "KM12 colon"}, "[14]": {"tested_on": "SK-MEL-2 melanoma"}, "[15]": {"tested_on": "OVCAR-3 ovarian"}, "[16]": {"tested_on": "CCRF-CEM leukemia"}, "[17]": {"tested_on": "SR leukemia"}}, "note": "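96-well plates; 48 h exposure; 5 concentrations. Endpoints by linear interpolation between flanking doses. Not reached: highest tested concentration assigned. GI50 marks 50% less growth.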 Certain results were filed several times, with different values. The list is limited to them. An entry can have further records. For some assays here: The records of an entry repeat one measurement in other runs, samples, wells, individuals or studies. Records carry a tag for their origin. The letters are not those of the source and start again with each entry.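 TGI is the concentration that stops growth completely.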 For some assays here: A record mostly stands for its own series of concentrations, not given here; a value can be the end of its range.", "data": [{"smiles": "CNc1cc2c(c3ccccc13)C(CCl)CN2C(=O)c1cc2cc(OC)c(OC)c(OC)c2[nH]1", "note": "(stereo not given)", "values": [{"measurement": "TGI", "setting": "[1]", "value": "3.98 nM and 100 nM"}, {"measurement": "TGI", "setting": "[2]", "value": "5.62 nM and 1.22 µM"}, {"measurement": "TGI", "setting": "[3]", "value": "169 nM and 10.8 nM"}]}, {"smiles": "CCOC(=O)N[C@H]1CCc2cc(OC)c(OC)c(OC)c2-c2ccc(SC)c(=O)cc21", "values": [{"measurement": "TGI", "setting": "[1]", "value": "< 10 nM [sample A] and > 34.9 µM [sample B]"}, {"measurement": "TGI", "setting": "[4]", "value": "9.3 µM [sample A] and > 100 µM [sample B]"}, {"measurement": "TGI", "setting": "[5]", "value": "< 10 nM [sample A] and > 100 µM [sample B]"}, {"measurement": "TGI", "setting": "[6]", "value": "< 10 nM [sample A] and > 100 µM [sample B]"}, {"measurement": "TGI", "setting": "[7]", "value": "1.16 µM [sample A] and > 100 µM [sample B]"}, {"measurement": "TGI", "setting": "[8]", "value": "6.49 µM [sample A] and > 100 µM [sample B]"}, {"measurement": "TGI", "setting": "[9]", "value": "12.3 µM [sample A] and < 10 nM [sample B]"}, {"measurement": "GI50", "setting": "[3]", "value": "> 100 µM [sample A, 1 test] and < 10 nM [sample B, mean of 2 tests]"}, {"measurement": "TGI", "setting": "[3]", "value": "> 100 µM [sample A, 1 test] and 7.65 µM [sample B, mean of 2 tests]"}, {"measurement": "TGI", "setting": "[10]", "value": "271 nM [sample A] and 13.7 nM [sample B]"}, {"measurement": "TGI", "setting": "[11]", "value": "2.45 µM [sample A] and < 19.1 nM [sample B]"}, {"measurement": "TGI", "setting": "[12]", "value": "2.67 µM [sample A] and > 100 µM [sample B]"}, {"measurement": "TGI", "setting": "[13]", "value": "258 nM [sample A] and 30.1 µM [sample B]"}, {"measurement": "TGI", "setting": "[14]", "value": "8.17 µM [sample A] and > 100 µM [sample B]"}, {"measurement": "TGI", "setting": "[15]", "value": "1.56 µM [sample A] and < 19.5 nM [sample B]"}]}, {"smiles": "CCCC(=O)Nc1cn(COC)c(C(=O)N2C[C@@H]3C[C@]34C2=CC(=O)c2[nH]cc(C)c24)n1", "values": [{"measurement": "TGI", "setting": "[16]", "value": "3.59 µM and > 100 µM"}]}, {"smiles": "O=C(Nc1cc(C(F)(F)F)cc(C(F)(F)F)c1)c1cc(Cl)ccc1O", "values": [{"measurement": "TGI", "setting": "[17]", "value": "956 nM [sample A, mean of 2 tests] and > 100 µM [sample B, mean of 2 tests]"}]}]}
